The chains are these.
B1: PhoQ; a variant is named by its letters at X, in order, P23837 (parent)
chain: MKKLLRLFFPLSLRVRFLLATAAVVLVLSLAYGMVALIGYSVSFDKTTFRLLRGESNLFYTLAKWENNKLHVELPENIDKQSPTMTLIYDENGQLLWAQRDVPWLMKMIQPDWLKSNGFHEIEADVNDTSLLLSGDHSIQQQLQEVREDDDDAEMTHSVAVNVYPATSRMPKLTIVVVDTIPVELKSSYMVWSWFIYVLSANLLLVIPLLWVAAWWSLRPIEALAKEVRELEEHNRELLNPATTRELTSLVRNLNRLLKSERERYDKYRTTLTDLTHSLKTPLXXLQXXLRSLRSEKMSVSDAEPVMLEQISRISQQIGYYLHRASMRGGTLLSRELHPVAPLLDNLTSALNKVYQRKGVNISLDISPEISFVGEQNDFVEVMGNVLDNACKYCLEFVEISARQTDEHLYIVVEDDGPGIPLSKREVIFDRGQRVDTLRPGQGVGLAVAREITEQYEGKIVAGESMLGGARMEVIFGRQHSAPKDE

The source of these data is a collection of fitness landscapes (doi:10.1126/science.1257360).

The other results are listed elsewhere or left out.

In the test the parent is B1. As to the kind of experiment: enrichment ratio after two sorts for PhoP signalling (ratio (wild type AVST 3.29)); higher = more functional. Conditions: with PhoP (E. coli).
As for NHFM, the enrichment ratio is not above 0.25. In the case of RADY it was not above 0.25; in that of QPAR, not above 0.25; in that of VTKF, not above 0.25.

In the case of YNKF, the enrichment ratio was not above 0.25. In the case of FCPH it was not above 0.25. Take APDD: the enrichment ratio was not above 0.25.

As to PDWA, the enrichment ratio is not above 0.25. Take AHLW: the enrichment ratio is not above 0.25. On to VEKM, for which the enrichment ratio is not above 0.25. For YVTG, the enrichment ratio is not above 0.25. In the case of YWRQ, the enrichment ratio is not above 0.25. Consider GMFN, for which the enrichment ratio was not above 0.25. In the case of IPGH it was not above 0.25.

As for WCYW, the enrichment ratio was not above 0.25. As to WWIR, the enrichment ratio is not above 0.25. In the case of KGSK it was not above 0.25; in that of DSPD, not above 0.25. Take WQRE: the enrichment ratio is not above 0.25. PYWP: the enrichment ratio was not above 0.25. As to YTDY, the enrichment ratio is not above 0.25. In the case of DGVE it was not above 0.25. For the variant IRLW, the enrichment ratio is not above 0.25. In the case of MCTA it was not above 0.25; in that of ARCD, not above 0.25. In the case of PAFD it was not above 0.25; in that of PMLA, not above 0.25; in that of PTRG, not above 0.25. YQIR: the enrichment ratio is not above 0.25. As for EHQG, the enrichment ratio was not above 0.25. On to VPMY, for which the enrichment ratio was not above 0.25. Turning to VELH, the enrichment ratio is 0.876. In the case of PYIY it was not above 0.25; in that of RHPV, not above 0.25.

Take IFCF: the enrichment ratio was not above 0.25. In the case of HSQM it was 0.399. In the case of QTDQ it was not above 0.25; in that of ALEL, not above 0.25. With SSPK, the enrichment ratio was not above 0.25. Regarding MRCN, the enrichment ratio was not above 0.25.

Take HCNW: the enrichment ratio was not above 0.25. With QNAA, the enrichment ratio is not above 0.25. As for VMSA, the enrichment ratio is not above 0.25. Regarding YKYQ, the enrichment ratio was not above 0.25. Turning to KDPQ, the enrichment ratio was not above 0.25. With DACI, the enrichment ratio was not above 0.25. For the variant FNWK, the enrichment ratio is not above 0.25. In the case of AEGG it was not above 0.25; in that of LRKL, not above 0.25. In the case of ISID it was not above 0.25; in that of QFQN, not above 0.25; in that of WDKC, not above 0.25.

Regarding HGYW, the enrichment ratio is not above 0.25. RVTV: the enrichment ratio is not above 0.25. VRHW: the enrichment ratio was not above 0.25. In the case of AWRY it was not above 0.25; in that of WIRM, not above 0.25; in that of EIRR, not above 0.25.

As to PFVF, the enrichment ratio is not above 0.25. In the case of THTR it was not above 0.25. In the case of CHIY it was not above 0.25; in that of FTHV, not above 0.25; in that of RWMN, not above 0.25.

For WVGP, the enrichment ratio was not above 0.25. In the case of LRLS it was not above 0.25; in that of AGIY, 7.17; in that of MCNG, not above 0.25. In the case of PYVW it was not above 0.25; in that of MATS, not above 0.25.

As to FSIQ, the enrichment ratio was not above 0.25.

As to EWVS, the enrichment ratio was not above 0.25. For the variant RLQN, the enrichment ratio is not above 0.25.

Turning to NVFD, the enrichment ratio was not above 0.25.

Turning to DQKA, the enrichment ratio is not above 0.25. Regarding EGKG, the enrichment ratio is not above 0.25.

For the variant AVAI, the enrichment ratio is 4.58. MVAS: the enrichment ratio came to 4.25. In the case of YGMR it was not above 0.25; in that of FRWK, not above 0.25; in that of MGKW, not above 0.25. With HFES, the enrichment ratio is not above 0.25. As for RPCF, the enrichment ratio is not above 0.25.

Take KYSL: the enrichment ratio is not above 0.25. As for QPGM, the enrichment ratio was not above 0.25. In the case of PPKE it was not above 0.25. In the case of HNTR it was not above 0.25; in that of NHLG, not above 0.25. In the case of DPGD it was not above 0.25; in that of LCIC, not above 0.25. Take GDAL: the enrichment ratio was not above 0.25. In the case of FPSP it was not above 0.25; in that of FPGV, not above 0.25; in that of PHGF, not above 0.25.

As to IFCT, the enrichment ratio was not above 0.25. On to ANVG, for which the enrichment ratio worked out at 2.2.

LWYT: the enrichment ratio was not above 0.25. In the case of AYKC it was not above 0.25; in that of NVKG, not above 0.25; in that of GAFP, not above 0.25. As to YYDW, the enrichment ratio is not above 0.25. In the case of ATTF it was 18.8; in that of WCMG, not above 0.25; in that of DWIA, not above 0.25.

In the case of DICH, the enrichment ratio was not above 0.25. In the case of KVMD it was not above 0.25. In the case of RTLV it was 0.476. In the case of LYMQ it was not above 0.25; in that of NKIG, not above 0.25; in that of QENI, not above 0.25. Turning to EKCR, the enrichment ratio was not above 0.25.

As for MYRY, the enrichment ratio is not above 0.25. PNAR: the enrichment ratio is not above 0.25.

With AVGV, the enrichment ratio is not above 0.25. In the case of TYVS it was not above 0.25; in that of QAPT, not above 0.25.

With PCSK, the enrichment ratio was not above 0.25. In the case of QSAD it was not above 0.25. In the case of ITSH it was not above 0.25; in that of FGKV, not above 0.25; in that of YWTY, 0.554. In the case of RDNV it was not above 0.25; in that of PKSN, not above 0.25; in that of DYQH, not above 0.25. For the variant PWGY, the enrichment ratio is not above 0.25. In the case of HGAP it was not above 0.25; in that of QKIG, not above 0.25. In the case of QSGV it was 3.83. Take LGWC: the enrichment ratio was not above 0.25. In the case of AETC it was 36.7; in that of INPM, not above 0.25; in that of FIME, not above 0.25. In the case of IGFA it was not above 0.25; in that of MRNF, not above 0.25; in that of LSCM, not above 0.25.

In the case of RLGD, the enrichment ratio is not above 0.25. LGQA: the enrichment ratio is not above 0.25. In the case of DTNK it was not above 0.25; in that of NGTT, not above 0.25; in that of SMWY, not above 0.25.

In the case of RMNR, the enrichment ratio was not above 0.25.

Consider DLCW, for which the enrichment ratio is not above 0.25. In the case of NHEH it was not above 0.25. In the case of ICYV it was not above 0.25. In the case of GLIP it was not above 0.25.

With VPKR, the enrichment ratio was not above 0.25. In the case of MYMG it was not above 0.25; in that of NNNC, not above 0.25; in that of GYVR, not above 0.25.

Turning to FKLS, the enrichment ratio was not above 0.25.

Take RQAP: the enrichment ratio was not above 0.25.

For the variant NLPT, the enrichment ratio is not above 0.25. In the case of LGIH it was not above 0.25. In the case of RWQY it was not above 0.25.
